# Laboratory results as given in the supplement of paper PMC7826260.
# Some of the results follow. One pool of 16,384 single-stranded DNAs met each Rep nickase domain in vitro (1 h at 37 °C, 3 µM enzyme); the outer parts of the 90-letter strands are left off. Uncut reads are compared with the no-enzyme pool on a log2 scale; the lower, the more was cut; hits are not called. Shares of all reads are compared; uncut strands gain when others are lost, and binding without cutting may add a little.
# How the values were obtained:
# Assay in all cases: uncleaved DNA left, log2 of reads against the no-enzyme library (log2 ratio); higher = less cleavage (more negative = more Rep cleavage of the k-mer); sequences stand for … in CTCGTCCG…ACCGGAGA
# [1] = test system: T1, Rep nickase domain of Muscovy duck circovirus
# T1 sequence (residues 1-111, tag not shown): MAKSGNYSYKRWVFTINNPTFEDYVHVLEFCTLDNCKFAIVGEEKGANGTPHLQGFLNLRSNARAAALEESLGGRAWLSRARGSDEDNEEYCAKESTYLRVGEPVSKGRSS
# Description: (§1)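 A pool of 90-nt single-stranded DNAs with seven random bases just before the constant AC of the nick site (name = the seven bases) was cut by 3 µM recombinant His6-SUMO-tagged Rep nickase domain (300 nM DNA, 50 mM HEPES pH 8.0, 50 mM NaCl, 1 mM MnCl2, 1 h, 37 °C, three replicates). Uncut DNA was amplified and sequenced.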
# [2] = test system: T2, Rep nickase domain of banana bunchy top virus
# T2 sequence (residues 1-94, tag not shown): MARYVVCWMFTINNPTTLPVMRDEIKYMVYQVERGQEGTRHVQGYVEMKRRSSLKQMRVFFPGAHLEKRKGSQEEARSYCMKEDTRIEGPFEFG
# Description: as §1
# [3] = test system: T3, Rep nickase domain of cabbage leaf curl virus
# T3 sequence (residues 1-116, tag not shown): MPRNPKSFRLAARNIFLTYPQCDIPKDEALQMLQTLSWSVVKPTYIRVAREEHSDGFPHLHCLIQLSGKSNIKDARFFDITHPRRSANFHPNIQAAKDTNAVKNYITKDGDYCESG
# Description: as §1
# [4] = test system: T4, Rep nickase domain of chickpea chlorotic dwarf virus
# T4 sequence (residues 1-124, tag not shown): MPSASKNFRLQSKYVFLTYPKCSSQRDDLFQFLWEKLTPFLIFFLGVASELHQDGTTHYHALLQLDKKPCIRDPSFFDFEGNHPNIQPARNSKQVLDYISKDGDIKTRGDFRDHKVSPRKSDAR
# Description: as §1
# [5] = test system: T5, Rep nickase domain of faba bean necrotic yellows virus
# T5 sequence (residues 1-98, tag not shown): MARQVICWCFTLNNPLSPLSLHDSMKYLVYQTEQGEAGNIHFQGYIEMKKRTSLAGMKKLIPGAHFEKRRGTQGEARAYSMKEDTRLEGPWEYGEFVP
# Description: as §1
# [6] = test system: T6, Rep nickase domain of maize striate mosaic virus
# T6 sequence (residues 1-117, tag not shown): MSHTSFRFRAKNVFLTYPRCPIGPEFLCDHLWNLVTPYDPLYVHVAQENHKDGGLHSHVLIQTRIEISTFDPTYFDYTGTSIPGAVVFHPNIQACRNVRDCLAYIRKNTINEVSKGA
# Description: as §1
# [7] = test system: T7, Rep nickase domain of porcine circovirus 2
# T7 sequence (residues 2-116, tag not shown): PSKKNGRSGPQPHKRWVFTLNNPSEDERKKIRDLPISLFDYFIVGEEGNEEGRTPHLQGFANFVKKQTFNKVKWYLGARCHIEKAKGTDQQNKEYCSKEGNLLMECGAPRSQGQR
# Description: as §1
# [8] = test system: T8, Rep nickase domain of tomato golden mosaic virus
# T8 sequence (residues 1-124, tag not shown): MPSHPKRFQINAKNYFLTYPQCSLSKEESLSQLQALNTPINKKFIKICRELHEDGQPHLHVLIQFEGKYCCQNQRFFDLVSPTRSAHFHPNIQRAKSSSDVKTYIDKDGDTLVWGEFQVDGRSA
# Description: as §1
# [9] = test system: T9, Rep nickase domain of tomato yellow leaf curl virus
# T9 sequence (residues 1-136, tag not shown): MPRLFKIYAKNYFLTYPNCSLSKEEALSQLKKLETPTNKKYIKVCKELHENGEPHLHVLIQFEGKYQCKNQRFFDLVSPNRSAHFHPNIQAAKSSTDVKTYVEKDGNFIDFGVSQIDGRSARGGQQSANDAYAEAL
# Description: as §1
# [10] = test system: T10, Rep nickase domain of wheat dwarf virus
# T10 sequence (residues 1-137, tag not shown): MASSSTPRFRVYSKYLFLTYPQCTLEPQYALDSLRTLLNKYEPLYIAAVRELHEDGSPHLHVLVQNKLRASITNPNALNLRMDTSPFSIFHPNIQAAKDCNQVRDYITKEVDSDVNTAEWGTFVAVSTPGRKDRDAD
# Description: as §1
Sequence,uncleaved DNA left (log2) [1],uncleaved DNA left (log2) [2],uncleaved DNA left (log2) [3],uncleaved DNA left (log2) [4],uncleaved DNA left (log2) [5],uncleaved DNA left (log2) [6],uncleaved DNA left (log2) [7],uncleaved DNA left (log2) [8],uncleaved DNA left (log2) [9],uncleaved DNA left (log2) [10]
CGCAATC,-0.0444,0.0157,-0.243,-0.102,-0.0798,-0.358,-0.0553,-0.0502,-0.0803,-0.0101
CTCGGCT,-0.107,-0.197,-0.291,-0.958,-0.017,-0.828,-0.088,-0.0891,-0.00858,-0.107
CCGCTAA,-0.109,-0.0714,-0.304,-0.415,-0.0872,-0.647,-0.078,-0.099,-0.283,0.00674
TACATGT,-0.0336,-0.101,-0.31,-1.19,0.00397,-0.536,-0.381,-0.0975,-0.105,-0.0955
CCCAAGA,-0.0489,0.118,0.0388,0.0311,0.0209,-0.977,0.0926,0.00193,0.00913,-0.00375
GCTCCCC,-0.273,-0.0108,0.188,0.382,-0.152,0.388,-0.826,-0.0653,0.0435,-0.0594
ACGGTGC,0.0606,-0.105,-0.604,-0.472,-0.0123,-0.952,0.18,0.0747,0.105,-0.162
TGGGCCT,0.00367,0.0582,0.693,1.53,0.0584,2.02,0.0398,-0.0834,0.000365,0.116
CTGTCTC,0.0877,-0.0382,0.0809,0.137,0.0443,0.221,-0.108,-0.0542,0.0768,0.000786
GGTGCAA,0.038,0.171,0.543,1.56,-0.047,2.04,0.126,0.0627,0.102,0.12
ATTTAAT,-3.12,-3.29,-0.216,-1.35,-0.175,-0.496,-3.91,-0.184,-0.0193,-0.193
AGTGGAC,0.0749,0.0973,0.699,1.84,0.0454,2.07,0.254,0.0944,0.139,0.117
AATCCGT,-0.139,-0.147,-0.414,-1.13,-0.102,-1.23,-0.177,-0.0313,-0.0985,-0.168
AGATGGC,-0.0406,0.0157,-0.166,-0.245,0.00588,-0.978,-0.0223,0.00838,-0.0309,-0.126
TGCTGGG,-0.0442,0.0108,-0.245,-0.429,0.0329,-0.795,0.0961,0.0403,0.0383,-0.0572
